Several values for one entry are separate records, joined by “and”; a condition that tells them apart may be missing. Equal values may be shown once. Out of some 340,000 compounds screened, about 2,100 (0.62%) were called active. The shares of active, inactive and inconclusive entries below differ from those in the screen.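 How the source made its calls: active means first-screen hits whose inhibition reached a set limit at any dose in the follow-up dose series; inconclusive means inhibition above the set first-screen limit but never retested; inactive means the rest.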
These compounds were tested against Rac GTPase-activating protein 1 (Homo sapiens) (UniProt Q9H0H5) (assay: blockers of MgcRacGAP-driven Rac1 GTP hydrolysis – biochemical, ADP Hunter fluorescence, primary and confirmatory, confirmation (AID 624330;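 further: fluorescence reports GDP produced by GAP-driven GTP hydrolysis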)). Details: MgcRacGAP-stimulated Rac1 GTP hydrolysis, at 30 µM, stronger effect = higher value, GST-tagged Rac1 F28L mutant substrate.
Chain of UniProt Q9H0H5 (Q9H0H5 whole entry, looked up): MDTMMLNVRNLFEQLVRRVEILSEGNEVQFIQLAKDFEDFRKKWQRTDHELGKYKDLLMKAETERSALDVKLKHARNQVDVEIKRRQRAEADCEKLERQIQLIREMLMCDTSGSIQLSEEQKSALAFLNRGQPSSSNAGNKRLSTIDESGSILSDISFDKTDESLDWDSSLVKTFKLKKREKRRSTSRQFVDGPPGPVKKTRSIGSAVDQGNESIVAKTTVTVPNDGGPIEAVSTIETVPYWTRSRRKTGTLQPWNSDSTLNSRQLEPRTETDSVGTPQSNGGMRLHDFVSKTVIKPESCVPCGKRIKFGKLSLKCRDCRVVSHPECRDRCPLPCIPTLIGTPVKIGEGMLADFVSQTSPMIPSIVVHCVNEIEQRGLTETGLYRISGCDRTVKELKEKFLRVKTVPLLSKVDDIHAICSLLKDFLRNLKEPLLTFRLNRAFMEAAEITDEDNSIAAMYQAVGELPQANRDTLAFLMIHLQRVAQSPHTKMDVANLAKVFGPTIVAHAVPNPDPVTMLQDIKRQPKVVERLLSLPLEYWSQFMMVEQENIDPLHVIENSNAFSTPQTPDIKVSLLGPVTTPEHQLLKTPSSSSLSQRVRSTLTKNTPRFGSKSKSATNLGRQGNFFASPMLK

inhibition, inactive:
O=C(/C=C/c1cccc(F)c1)N1CCN(c2ccccn2)CC1 6.78%
O=C(CSCC(=O)OCC(=O)c1ccc(Br)cc1)Nc1ccc(Br)cc1 2.71%
COc1ccc(-c2noc(-c3ccccc3C(=O)NCc3ccco3)n2)cc1 8.25%
COC(=O)C(Cc1cncn1COCc1ccccc1)NC(=O)OC(C)(C)C (centres undefined) 4.31%
CO/N=C/C(C(C)=O)C(=O)Nc1ccc(Cl)cc1Cl (centres undefined) 1.68%
CN(/N=C/c1cc(Br)cc(Br)c1O)c1ccccc1 5.13%
Cn1c(-c2ccc(F)cc2)cnc1NCc1ccccc1 25.3%
COc1ccc(/C(C)=N/NC(=S)Nc2cc(C)ccc2C)cc1 -5.64%
CCc1ccccc1NC(=O)c1ccc(NCCc2ccccc2)c([N+](=O)[O-])c1 10.6%
CCN(CC)CCCN(C(=O)c1ccccc1F)c1nc(-c2ccc(OC)cc2)cs1 13.2%
O=C(N/N=C\c1cccnc1)c1ccc(Cl)cc1Cl 8.54%
COC(CN(C)C(=O)C1CCC(CNS(=O)(=O)c2ccccc2)CC1)OC (centres undefined) 6.07%
COC(=O)c1c(NC(=O)CSc2nnnn2-c2ccccc2)sc2c1CCC(C(C)(C)C)C2 (centres undefined) 5.4%
Cc1ccc(/C=C/C(=O)Nc2ccc([N+](=O)[O-])cc2)o1 5.27%
CS(=O)(=O)N1CCN(CC2CC3C=CC2C3)CC1 (centres undefined) 26.4%
CCn1c2ccccc2c2cc(NC(=O)CN3CCCC3)ccc21 5.72%
Cc1ccc(C2C(=O)c3ccccc3C2=O)cc1 5.72%
Oc1ccc(Cl)cc1/C=N/c1nccs1 3.22%
CCN(CC)S(=O)(=O)c1cccc(C(=O)NCC2CCCO2)c1 (centres undefined) -3.29%
COc1ccc(/C=N/NC(=O)CC(=O)NCCc2ccccc2)cc1OC 1.81%
N#Cc1c2ccc(OCC(=O)NCc3ccco3)cc2n2ccccc12 8.65%
COc1ccc(CN(CC(=O)NCc2ccco2)C(=O)CNS(=O)(=O)c2ccc(C)cc2)cc1 -1.32%
c1ccc(Cn2cc(-c3ccccc3)cn2)cc1 6.79%
Cc1nc(Cc2nnc(SCC(=O)N3CCN(c4ccccc4)CC3)o2)cs1 5.08%

inhibition, inconclusive:
O=C(O)C(c1ccccc1)N1C(=O)/C(=C\c2ccc(O)c(O)c2)SC1=S (centres undefined) 59%
Oc1ccc(N2CCN(C(c3cccnc3)c3nnnn3Cc3ccccc3)CC2)cc1 (centres undefined) 39.6%
CCOc1cc(CN2CCc3c([nH]c4ccccc34)C2)ccc1OC 35.1%
Cc1cc(C)nc(SSc2nc(C)cc(C)n2)n1 59%
c1ccc2c(Nc3ccc(N4CCOCC4)cc3)nc(N3CCOCC3)nc2c1 34.3%
COc1cccc(CNCc2cc(OC)cc(OC)c2)c1 36%
O=C(O)c1c2c(nc3ccccc13)/C(=C/c1ccc(O)cc1)CC2 99%
CCCC1Nc2ccc(C(=O)O)cc2C2C=CCC12 (centres undefined) 37.3%
COc1ccc(C(c2c(C)[nH]n(-c3ccccc3)c2=O)c2c(C)[nH]n(-c3ccccc3)c2=O)cc1OC 32.5%
O=C1/C(=C/C=C/c2ccco2)SC(=S)N1c1ccc(O)cc1 40%
CCN(CC)C(=O)C1CCN(Cc2ccc(OCc3ccccc3)c(OC)c2)CC1 35.3%
COc1ccccc1N1CCN(CCCCOc2c(OC)cccc2OC)CC1 33.7%
CC(=O)c1ccc(NC(=S)Nc2ccc(N3CCOCC3)cc2)cc1 35.5%
Clc1ccc(OCCOCCN2CCCCC2)c(Br)c1 38.8%
COc1ccc(/C=N/n2c(-c3n[nH]c4c3CCC4)n[nH]c2=S)cc1 33.1%
Nc1ccc2nc(-c3cc(Cl)c(N)c(Cl)c3)[nH]c2c1 60%
CC(OC(=O)c1cc(=O)c2ccccc2o1)C(=O)Nc1ccc(N(C)C)cc1 (centres undefined) 33%
C[C@@H]1O[C@@H](Oc2c(-c3ccc(O)c(O)c3)oc3cc(O)cc(O)c3c2=O)[C@H](O)[C@H](O)[C@H]1O 33.1% and 32.5%
COc1cc(O)ccc1/C=N/NC(=O)c1ccc([N+](=O)[O-])cc1 34.3%
CCOc1cc(/C=N/n2c(C)nc3ccccc3c2=O)ccc1O 33.5%
COc1cc(/C=C2\C(=O)ON=C2c2ccccc2)cc(Br)c1O 32.3%
Oc1ccccc1Nc1ccccn1 34.2%
O=C(CCN1C(=O)/C(=C\c2ccco2)SC1=S)Nc1ccc(C(=O)O)c(O)c1 41%
CCOC(=O)Cc1csc(NC(=O)NC2(C(F)(F)F)Oc3cc(Cl)c(Cl)cc3O2)n1 84.8%
C=CCOc1c(CNc2ccc3[nH]c(=O)[nH]c3c2)cccc1OC 73.3%
Cc1ccc(OCCOc2cccc3ccc(C)nc23)c([N+](=O)[O-])c1 33.7%
O=C(O)C1Nc2ccc(Br)cc2C2C=CCC12 (centres undefined) 84.5%
COc1cc(Cl)ccc1NC(=O)COc1ccccc1C(=O)N1CCN(c2ccc(O)cc2)CC1 45.7%
COc1cc(CN2CCN(Cc3cccc(OC)c3OC)CC2)cc(OC)c1 33.6%
COc1ccc(C(=O)Nc2ccc(O)c3ccccc23)cc1OC 52.5%
Clc1ccc(SCCOCCN2CCOCC2)cc1 54.5%
O=C(CCl)Nc1ccc(N2CCCCCC2)cc1 52%
COc1ccc(S(=O)(=O)N2CCN(Cc3cc(OC)c(OC)c(OC)c3)CC2)cc1 33.9%
Oc1cnn(-c2ccccc2)c1 99.6%
COCCn1nnnc1C(c1cc2cc(OC)c(OC)cc2[nH]c1=O)N1CCN(c2ccc(O)cc2)CC1 (centres undefined) 43%

From PubChem BioAssay AID624330 (Southern Research Specialized Biocontainment Screening …, 2012)
